The supplement of paper PMC11417369
Some of the results follow.

tested on: PfSIP2 AP2 domain 1 (GST-tagged); experiment: gcPBM binding intensity (ln(normalized median fluorescence intensity)); higher = stronger DNA binding
Outline: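 GST-tagged P. falciparum DNA-binding domains produced in E. coli were incubated for 1 h on an Agilent 4 × 180k array of primer-extended double-stranded 36-bp intergenic genomic probes with negative controls. Binding intensity is the highest Masliner-normalised natural-log median intensity across replicate spots of either probe orientation, with bound protein detected by Alexa488 anti-GST antibody at 488 nm.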

| Sequence | gcPBM binding intensity (ln) |
| --- | --- |
| ATGATCATAAAACACACACACAAAAAAAAAAAAAAA [CACACA_site1805] | 6.95 |
| ATTAATTTTATATATGCACACAAAATATGTTCATAT [CACACA_site9350] | 7.13 |
| TATGTATATATTTGTGCACACCAAAGTTTGATTTTA [CACACA_site1861] | 9.76 |
| TTATAATAAACCTATACACACATAAATAAATAAATA [CACACA_site2581] | 7.04 |
| AATAATATTTATTTTTGTACATATGTGCATTATAAA [XGTACX_site3682] | 7.13 |
| TCAAGAATTATATAAACACACATACATACACCCATA [CACACA_site5126] | 7.28 |
| CCATGCATACATTCTTGTACACATTTCTATTATGAG [XGTACX_site39] | 7.16 |
| GAATTCAACAAAAAAAGTACTCTACATAAAATAATG [XGTACX_site175] | 7.2 |
| ATATTGATGTATTGTTTTTTTTTTTTCTTTTTTTTT [CACACA_negctrl_site1238] | 6.72 |
| GAACGAAACTTTCTTACACACATTGAAATTTTTTTC [CACACA_site1779] | 7.03 |
| TTATAAAAGGACTTCTGTACGAATTTTTTTTAATAA [XGTACX_site1411] | 6.77 |
| TACTCACAATGGGGTCTACAAAAAAAAAAAAATAAA [XGTACX_negctrl_site229] | 7.07 |
| TATGCAAGGAACCACACACACACACCGAAATGTATA [CACACA_site4573] | 6.87 |
| AATAAATAAATATATATATATATATAATATCATAAA [CACACA_negctrl_site337] | 7.29 |
| TTTTTTATTAGTATCTGTACACATTGGTATTTGTAT [XGTACX_site6682] | 7.34 |
| AGTTTATTTATATACACACACATATAAATATTATAG [CACACA_site6522] | 7.05 |
| ATATATATTTATGTATCACACACAAAAAAAAAAAAT [CACACA_site7973] | 7.07 |
| TATATATATATATATTGTACTTATGTTTATATTCAT [XGTACX_site6258] | 9.63 |
| TTCTTTAAAATATTATGTACACATTGCGAACAGTTT [XGTACX_site5418] | 7.42 |
| ATAAACTGAGTGGTTACACACAAAACCAATAACTTT [CACACA_site7601] | 6.62 |
| ATATAGACACACACATGTACATATGCCAACGTGATA [XGTACX_site3828] | 7.12 |
| ACTATATAATATAATATATTATAATATATTATATTA [GTGCAC_negctrl_site140] | 6.96 |

| Sequence | gcPBM binding intensity (ln) |
| --- | --- |
| TTCTTAAAATATGAAAGTACATAGGCATTATATATT [XGTACX_site8400] | 7.01 |
| TCCTTTCTTTTTTAAACATGCATATGTAATATAAAT [TGCATGCA_site979] | 7.18 |
| CCTTCATCATATTTAACACACAGAGAAAAAGCGGAT [CACACA_site274] | 7.22 |
| AAAAAAAAAAAAAAAAAAACCACAAACAAATATGAA [TGCATGCA_negctrl_site34] | 7.97 |
| CTCGTATATATAATACGTACATATTATATATATATA [XGTACX_site1704] | 8.84 |
| TTTACATACAAATTAACACACATATAGAAAAGAGAA [CACACA_site1889] | 7.32 |
| AAAAAAAATAAACACACACACATACCCATAAATATA [CACACA_site5980] | 7.03 |
| ATAATATAATAATACACACTCATTATATATATAAAG [CACACA_site3956] | 7.06 |
| TTTTAAAATATATTTGTATATATATATATATATATA [XGTACX_negctrl_site536] | 9.99 |
| TTTGAAATATTTATTTGTACATATACACACTTAAAT [XGTACX_site8321] | 7.07 |
| ATATTATTTTGTCAGGGTACATTCCATAAGTTTTTT [XGTACX_site6855] | 6.99 |
| TATTTATGTAGATACACACCCATGTTATATGGAGGT [CACACA_site3461] | 6.8 |
| TTTCTTTTTTTTTTTATTTACCTGAATTATGTATTA [TGCATGCA_negctrl_site345] | 6.68 |
| GCTTGTTCAAAAATGAGTACATACAAATAGTTGTAT [XGTACX_site1770] | 7.14 |
| AATAGATTTTTATGCGTGCACACATTTAACAAAAAA | 9.17 |
| GTGCTAGTATTTAATACACACAATTGAAGTTCCTGA [CACACA_site1452] | 7.09 |
| AAAAATATAAAGAAATGTACTTATAAAAATCCCTAC [XGTACX_site3824] | 7.15 |
| TACACCAGTTGTGGGAGTACACAAAAAAAGGGAAAA [XGTACX_site6047] | 7.02 |
| TTCTGTTCAAAATATGAACACACACCGATATATATA [CACACA_site8637] | 7.34 |
| CTTTATCTTTTTCATTGTACTTTATTTTAAAATTAA [XGTACX_site4858] | 7.51 |
| TGCAGTCTGGAGAAAAGTACACAGTATCTGGTAGCT [XGTACX_site2013] | 7.04 |
| AATATCATAAAATAAAGTACAAATATATATTGAAAA [XGTACX_site8813] | 6.76 |

| Sequence | gcPBM binding intensity (ln) |
| --- | --- |
| TTCTGGTGTAAATGCACACAGAAGAAGAAAAAAAAA [CACACA_site3685] | 7.92 |
| TAATTTAATTTTCCAAGAAAAAAAAAAGAAAAAAGA [CACACA_negctrl_site1703] | 6.76 |
| TAACATCCTAATGTCACACATGTTATAGGTTTAAAT [CACACA_site5649] | 6.75 |
| ATATAATATTACAAATGTACTTTAAAAAATTAGGAG [XGTACX_site3897] | 7.25 |
| TTGTTTCAAGAAAAAATCGAAAAACATAGAAAAAAA [XGTACX_negctrl_site615] | 6.88 |
| ACATATAAAATATATACACACATATAAATACATTAA [CACACA_site3867] | 7.06 |
| TATATATCAAAAATATGTACACAGAAATATATATTA [XGTACX_site6997] | 7.21 |
| TTGCAATAATGTTGCACACTAAATAGTCATATATAA [CACACA_site263] | 7.31 |
| TTTTAGTGAAATGAGTGTACATTATATATTTTTTTT [XGTACX_site4892] | 6.86 |
| ATTCTATATATATAAACACACAAATATTTTTATATA [CACACA_site1677] | 7.24 |
| AAGACTAATCTAGGTAGTACTTATATATCTTTATTT [XGTACX_site4572] | 6.81 |
| ATATAAGGAAGGGATGCACACAAAAGGGTACATAAG [CACACA_site9328] | 7.6 |
| ATATTTTTGTTCAGGAGTACAGTTCAAGATGAAAAT [XGTACX_site4178] | 7.29 |
| ATAACATAATAGCAACAATTTATTTCCTCTATAACA [CACACA_negctrl_site243] | 6.94 |
| TTTTTTATATATGTGTGTGTGTGTGTGTCAAGTTTA [GTGCAC_negctrl_site460] | 7.4 |
| TTTGGGATATTTACAGTGCAAAGATATTTTTATAAT | 8.08 |
| AATGGGGAAGGTTCTACACACAACGCAAATGCCTTA [CACACA_site2758] | 6.74 |
| TATAAATAATGTTAAACACACATACCGATATATAAT [CACACA_site5499] | 6.93 |
| AAATTATTATGTATTTGTACACATAAGAATATAAAA [XGTACX_site6841] | 6.88 |
| AGAGAAAGAAAGAAATGTACAAATACCTACACACAT [XGTACX_site3140] | 6.9 |
| TCAGTTAATGTATATGTACACACGGTGAGTATATAT [CACACA_site3346] | 6.96 |
| CTATAAATGAATGTTTGTACTTAATAATAAAAGAAA [XGTACX_site3170] | 6.92 |

| Sequence | gcPBM binding intensity (ln) |
| --- | --- |
| TTTTTTACAAATGATATCATTTCTTTAAATATTAAA [TGCATGCA_negctrl_site279] | 6.95 |
| TATTTTTTTCATAACAGTACAATAATATATATTTTT [XGTACX_site5739] | 7.07 |
| GCACACACAAAAAAAGCATGCATACTAGCTATTTTT [TGCATGCA_site18] | 6.99 |
| AATCAAAAAAAATGTTGTACGCCTAATTATAATTAA [XGTACX_site8906] | 7.37 |
| AATGAAATAAATAAGGGTACACATAAATATATATAT [XGTACX_site7006] | 8.84 |
| TATTCGTGCAATAATAGTACACTTATAAATTATTCA [XGTACX_site8993] | 7.7 |
| AAAAAACACCCATACACACACACACCGATATATATA [CACACA_site5808] | 7.59 |
| TTTATAAGAATTACTAGTACATATAAGGAATTATAT [XGTACX_site3953] | 7 |
| CATTTTTTATAATAATGTACATGTATTAAAAAAAAA [XGTACX_site6390] | 6.91 |
| TTATAAATTTAAAGTAGTACTATACTACTATTTTAT [XGTACX_site3038] | 6.69 |
| ATCCACAAAATAGGATGTACATATAAAATAAATAAA [XGTACX_site5362] | 7.13 |
| TATGGAATAATACGCGTACACACATATATATATTAA [CACACA_site132] | 7.3 |
| CATTATGTCATAAATGCACACATATATATATACATA [CACACA_site8454] | 7.38 |
| TATTTAAAAGTATATACACACAACTGGAATGAAAAG [CACACA_site4126] | 7.37 |
| TATTTTAATCGTAAGTGTACTCTTTTAAGTATATGT [XGTACX_site8591] | 7.01 |
| ATTATAACACCTCCCCCCCTTTTTTTATGAAGACCA [CACACA_negctrl_site1043] | 9.67 |
| TATGTATGCCCTAATGCATGTGAACAAAATAATATA [TGCATGCA_site407] | 6.87 |
| AAAATTAAAAAAATAAATACATTATATAATTAAAAA [CACACA_negctrl_site1426] | 6.77 |
| AACAGACATAGACACACACACATATATTTATTTATA [CACACA_site7571] | 7.17 |
| ATGCAAATAATATAAAGTACACAACATCGCCCAAAG [XGTACX_site1825] | 7.45 |
| TTTTTTAAATTTTGAATTATAACTACATTAAAGAAA [GTGCAC_negctrl_site279] | 6.84 |
| TGTTGTAACAAAAGTACACACACATTTCTATAAATT [CACACA_site8894] | 7.27 |
